From paper PMC12136788
The list shows a part of the results.

B1: chr4:123027775:123027776:-_ENSMUSG00000028649_ENSMUST00000154824|mus_mus|FALSE|FALSE (ssRNA)
RNA: GGGAGUUCUACAGUCCGACGAUCUUAUCUUGCUGAUAUAGCAAGUCAAGUUUAUAAAGAAGAUGCAUUUAGGAAUAAUCCUAAAAGAUAAAGCAGGUUUAUAACCCUGCACCACAUGAAACCCUAUUUAGAGGCUUUUCUUUUCAACAGAGGAUUGAGCAUCA
B2: 62659226_62659346_169_3pUTR_ENSMUSG00000032244_ENSMUST00000034775|mouse|control|control (ssRNA)
RNA: GGGAGUUCUACAGUCCGACGAUCGCGCCGCCGCCGUGUCCAGGCAGCAGCGCGACCCAGGGAGGGCGGAGACGCAGAGGUGGCCGAGCACCGCCGGAGGCACAAGUGGGACCCGGCCCGGGCGGGGAGAAGGACGGUCAGGGCCAACAGAGGAUUGAGCAUCA
B3: 3359495_3367888_967_CDS_ENSMUSG00000025899_ENSMUST00000053407|mouse|control|control (ssRNA)
RNA: GGGAGUUCUACAGUCCGACGAUCGGUAUCAAAUUUUCGAGGUGUAAUUCCAUGAGUCCAAAGGUAUCUAGAUUCUCCUGUCAUCACCAGCAAACUCCGACGAGGUAACAUAACUUGUACUGUGACACCCUCUGGAUGCUUGAACAACAGAGGAUUGAGCAUCA
B4: chr4:17845017:17845018:+_ENSG00000109805_ENST00000514176|hu_mus|hu_hu_hu_mus_False|18_28 (ssRNA)
RNA: GGGAGUUCUACAGUCCGACGAUCGCUCUCUUAACUUGUAUCUUCAUUAAGGAACUCUGCAAGGUUAAGUUUACUUUUCUGUAGCGCAGCUGUUUUGGCUCGUCUGGUAGUCUCAUCUUCAUUUCUGGAUGGUGGUUCAUGAUCCAACAGAGGAUUGAGCAUCA
B5: chr11:18503389:18503390:-_ENSG00000074319_ENST00000251968|hu_hu|hu_hu_hu_mus_True|38_48 (ssRNA)
RNA: GGGAGUUCUACAGUCCGACGAUCAUUUUCCAUUUUCUCCAGAGCAGAACUUAGUUCUUCAUCCUUCUUUUUCAAAAGUUCUAUGUUUUUAUCAACCUCGGCUACUUCUUGAUCUAAGCGGGUGACCAUCUCUUCCAGUUUCUGCAACAGAGGAUUGAGCAUCA
B6: 57373685_57373999_930_CDS_ENSG00000149131_ENST00000378324|human|control|control (ssRNA)
RNA: GGGAGUUCUACAGUCCGACGAUCAAUGAAAUGGGCCACAGGGUACUUCUUGCUAUUCAUCAUGGGCACUUUUAUAACUGAGUUUUUGAAGUGAAAGGGUUCCAUUCUGGUUUUCUUGGGAUCAAAUGUUGUCUUCCACUUGGCCAACAGAGGAUUGAGCAUCA
B7: chr5:61681977:61681978:+_ENSG00000068796_ENST00000381103|hu_hu|motif|central (ssRNA)
RNA: GGGAGUUCUACAGUCCGACGAUCCCACUGUCACAGACUUUAGUUCCGUUCAAUGAUAUGGCACAUCCUGCAAAAUUAACGGGUCACACACAAAAAAUGUCUCAAAUACAGUAAAAAUGUACACACAAAGGUAAUUUACAAUGACAACAGAGGAUUGAGCAUCA
B8: chr11:118894041:118894042:+_ENSG00000196655_ENST00000359005|hu_mus|FALSE|FALSE (ssRNA)
RNA: GGGAGUUCUACAGUCCGACGAUCAGGUUCAUCCUAUGACCCAGGUCCAAAAGUGCCAGCCUUCUCUGCCACCUCUAGAGCUAGCUUCAGGUUUUGAUCAAACAGCUCGCAUCUGAUAGGCAUUUCCAAGGAGUAGAAUGGAUUCAACAGAGGAUUGAGCAUCA
B9: chr5:21408736:21408737:-_ENSMUSG00000042453_ENSMUST00000161356|mus_hu|mus_mus_mus_hu_False|8_78 (ssRNA)
RNA: GGGAGUUCUACAGUCCGACGAUCGUUGACAGAGUUGUAGAUGGUGGCUUCAUGGAACUGGAACGGGGAGCAGCCAAUGCUGUUAGAAGAGGAAGGAAGGCACUGGGUCUGUACGAGCUGCCAGGAAUCGGACCUUGCAUCCUUCAACAGAGGAUUGAGCAUCA
B10: chr2:55200753:55200754:-_ENSG00000115310_ENST00000317610|hu_hu|FALSE|FALSE (ssRNA)
RNA: GGGAGUUCUACAGUCCGACGAUCUUGGAUUUUAGCCAUAGCAUCUUUAACAUUCUUAUUUGCAAGUCCUAGAUAAUGAUCUAUCUGUGCCUGAUGCCGUUCAUAAAUAACAGGAACACUGAAGAGUGAAAUGAGAGCCAAAAUCAACAGAGGAUUGAGCAUCA
B11: chr16:94690093:94690094:+_ENSMUSG00000040785_ENSMUST00000117648|mus_hu|mus_mus_mus_hu_True|98_108 (ssRNA)
RNA: GGGAGUUCUACAGUCCGACGAUCGGGGACUCCUGUGAGCAGACAGCCCUCGAUUCCAGGGGGAAAAAGUCUUAGUCGAUACUAAUUAAAAAGUGUUAAUGAUUUUUGAAAAUCAGAUUACAUCUAUAAAAGAUGAAAAGCAAACAACAGAGGAUUGAGCAUCA
B12: chr5:133537698:133537699:-_ENSG00000113575_ENST00000481195|hu_mus|motif|central (ssRNA)
RNA: GGGAGUUCUACAGUCCGACGAUCGCUCUCGUGAUUCCCUCGGAGUAUGGUGAUGCGCUCUCGGUAACGAACCUUAAGAGCGGCAAGCAGUGUAACUGUUUCAACAGAGUAAUAUCCUCUGUCCACAUAGUCUCCCAUAAACAGCAACAGAGGAUUGAGCAUCA
B13: chr16:45382771:45382772:-_ENSMUSG00000022661_ENSMUST00000163230|mus_mus|mus_mus_mus_hu_True|58_68 (ssRNA)
RNA: GGGAGUUCUACAGUCCGACGAUCCUGGGUCAUGUUAUAAGACAAAUGGACAGGGAGGGCAUGCUUCUGUAAAGAUGUGAACUACUCUCUAAGACUAACAAUAUUUAUCUAGCUAUAAAAAUAAGUUAAAUGAAUAAGUUAAGACAACAGAGGAUUGAGCAUCA
B14: 118506678_118506798_6332_CDS_ENSG00000172869_ENST00000311085|human|control|control (ssRNA)
RNA: GGGAGUUCUACAGUCCGACGAUCAGGCAAAUCUUCAGCAUCCUCAUUUAAUCCAAAUUCAUCUUCAUUUCUGCCAAAUGCAGACUGUAGUUCUUCAGCAUCUGAGCAAAAGUCACAAGUCCUCUGAAGAGCUAUCACCUCUUUCAACAGAGGAUUGAGCAUCA

Biological target: T1, UNK ZnF1-3 (human, UniProt Q9C0B0 31-174)
T1 sequence: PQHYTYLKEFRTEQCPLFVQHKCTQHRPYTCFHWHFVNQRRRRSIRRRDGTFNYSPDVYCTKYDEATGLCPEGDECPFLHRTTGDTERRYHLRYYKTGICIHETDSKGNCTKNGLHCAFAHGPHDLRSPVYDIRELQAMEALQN
Experiment: nsRBNS (natural sequence RNA bind-n-seq); RBNS binding buffer (assumed for nsRBNS): 25 mM Tris pH 7.5, 150 mM KCl, 3 mM MgCl2, 0.01% Triton X-100, 500 ug/ml BSA, 20 U/ml SUPERase-In, 4 C; UNK is unkempt and MSI1 is Musashi-1; names of the RNAs are library labels; protein concentration not given here; high values mean tight binding

With B1 as the binder, how does the binding signal read?
Its binding signal is 0.62 enrichment R.

For B2, which binding signal is on record?
The binding signal was 2.41 enrichment R.

For B3, which binding signal is on record?
Its binding signal is 1.67 enrichment R.

How did the binding signal turn out when B4 was run?
The binding signal was 0.406 enrichment R.

B5 was tested. Which binding signal did it give?
Its binding signal is 0.432 enrichment R.

How did the binding signal turn out when B6 was run?
Its binding signal is 0.906 enrichment R.

With B7 as the binder, how does the binding signal read?
The binding signal was 1.38 enrichment R.

How did the binding signal turn out when B8 was run?
Its binding signal is 1.2 enrichment R.

With B9 as the binder, how does the binding signal read?
The binding signal was 1.53 enrichment R.

With B10 as the binder, how does the binding signal read?
The binding signal was 1.44 enrichment R.

How did the binding signal turn out when B11 was run?
Its binding signal is 1.3 enrichment R.

For B12, which binding signal is on record?
Its binding signal is 0.972 enrichment R.

For B13, which binding signal is on record?
Its binding signal is 1.51 enrichment R.

For B14, which binding signal is on record?
Its binding signal is 0.876 enrichment R.
